This is one part of the list. These are noisy estimates, calculated here from bound and input reads.

In this assay the target is T1, Pho4 (S. cerevisiae) (UniProt P07270).
T1 sequence: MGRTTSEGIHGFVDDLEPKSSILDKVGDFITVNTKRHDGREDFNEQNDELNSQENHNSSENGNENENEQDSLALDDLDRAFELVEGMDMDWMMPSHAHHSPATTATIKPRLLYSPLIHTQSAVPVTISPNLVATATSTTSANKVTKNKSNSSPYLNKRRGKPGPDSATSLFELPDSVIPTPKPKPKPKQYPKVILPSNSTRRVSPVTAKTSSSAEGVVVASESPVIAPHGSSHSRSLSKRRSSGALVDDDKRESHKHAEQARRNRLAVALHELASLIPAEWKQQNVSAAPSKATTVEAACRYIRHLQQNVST
Briefly: relative binding free energy (BET-seq); higher = weaker binding. The note with it: reference: library average.
As to CTAATCACGTGGTTTA, the “relative binding free energy” value stood at 0.1 kcal/mol. As to CGACGCACGTGGGGGT, the “relative binding free energy” value is -0.28 kcal/mol.

GTTCGCACGTGAGGTA: the “relative binding free energy” value came out at 0.2 kcal/mol. On to GTTTTCACGTGGCTGG, for which the “relative binding free energy” value is 0.37 kcal/mol. Turning to CAAGGCACGTGGGGGG, the “relative binding free energy” value was -0.21 kcal/mol. As to ATGTACACGTGGTTAT, the “relative binding free energy” value turned out to be 0.05 kcal/mol. Turning to ATGTACACGTGTAGGA, the “relative binding free energy” value was found to be 0 kcal/mol. On to GAGATCACGTGTGCGG, for which the “relative binding free energy” value was 0.22 kcal/mol. The same measure for AATGGCACGTGAGGTT: 0.17 kcal/mol; for GAGGGCACGTGTGCGG: -0.2 kcal/mol.

On to CATTGCACGTGTATGT, for which the “relative binding free energy” value is -0.07 kcal/mol.

Consider TCCGGCACGTGAGGTG, for which the “relative binding free energy” value is -0.06 kcal/mol. As for GGGCCCACGTGGGGTA, the “relative binding free energy” value is -0.37 kcal/mol. On to GCTTGCACGTGGGTCT, for which the “relative binding free energy” value turned out to be 0.07 kcal/mol. Regarding AGATGCACGTGTTTAG, the “relative binding free energy” value was -0.04 kcal/mol.

For the sequence ATGTTCACGTGTCAGG, the “relative binding free energy” value is 0.21 kcal/mol. The same measure for TAGGTCACGTGGCAGA: 0.03 kcal/mol; for TGAAGCACGTGGAGTG: -0.07 kcal/mol; for TGTCGCACGTGTATTG: -0.07 kcal/mol. With GTGCGCACGTGATAGG, the “relative binding free energy” value is -0.06 kcal/mol. Consider GTATGCACGTGGTCAG, for which the “relative binding free energy” value was -0.01 kcal/mol. TTAAACACGTGAGGAA: the “relative binding free energy” value was found to be 0.25 kcal/mol. On to AGGGTCACGTGAATAT, for which the “relative binding free energy” value was 0.36 kcal/mol. Under CGCGTCACGTGTAGGT stands 0.04 kcal/mol; under CGTGGCACGTGAGACG, 0.11 kcal/mol.

With GATAGCACGTGAGGGT, the “relative binding free energy” value was 0.23 kcal/mol.

With ACGTGCACGTGGGTAT, the “relative binding free energy” value is -0.2 kcal/mol. TTGTACACGTGTGTAG: the “relative binding free energy” value was determined as 0.14 kcal/mol. As for ATGTCCACGTGGGCAT, the “relative binding free energy” value was -0.03 kcal/mol. The same measure for GAGTACACGTGTGAGT: 0.27 kcal/mol; for TATGTCACGTGAGTTA: 0.23 kcal/mol. The same measure for ATTAACACGTGGGGCG: -0.12 kcal/mol; for TAATGCACGTGTTGTA: 0.01 kcal/mol; for CTTCGCACGTGTGGTA: 0.09 kcal/mol. As to GGGGGCACGTGCAGCT, the “relative binding free energy” value was -0.29 kcal/mol.

TGCACCACGTGGTTGG: the “relative binding free energy” value is 0.02 kcal/mol. On to TTTGACACGTGTTGCG, for which the “relative binding free energy” value is 0.07 kcal/mol. The same measure for CGTGTCACGTGCTTGG: 0.04 kcal/mol; for GCAAGCACGTGAGGGG: 0.14 kcal/mol.

In the case of TGATGCACGTGGTTTG, the “relative binding free energy” value was -0.05 kcal/mol. Under TGCTTCACGTGATATG stands 0.29 kcal/mol; under GTGTTCACGTGAGAAT, 0.34 kcal/mol.

In the case of GCTTACACGTGGGGGT, the “relative binding free energy” value is -0.11 kcal/mol. For TGTGGCACGTGACAAG, the “relative binding free energy” value is 0 kcal/mol. Consider GTATACACGTGGGTGT, for which the “relative binding free energy” value was -0.09 kcal/mol. Take ATAATCACGTGGCTTT: the “relative binding free energy” value was found to be 0.06 kcal/mol. GGTCTCACGTGTAGCA: the “relative binding free energy” value is 0.42 kcal/mol. As to TCAGTCACGTGGATGT, the “relative binding free energy” value was 0.08 kcal/mol. Turning to GAATACACGTGTTTAG, the “relative binding free energy” value was found to be 0.19 kcal/mol. Under CGTCGCACGTGAAAGG stands 0.27 kcal/mol. As to CTCTGCACGTGGGGAG, the “relative binding free energy” value is -0.18 kcal/mol. Regarding CGAGGCACGTGTCAGG, the “relative binding free energy” value was -0.13 kcal/mol. TGATACACGTGCTTGG: the “relative binding free energy” value was -0.02 kcal/mol. Turning to CTGTACACGTGGTAGT, the “relative binding free energy” value is -0.02 kcal/mol.

As to CATAACACGTGGTGTT, the “relative binding free energy” value was -0.05 kcal/mol. Turning to TCATTCACGTGTTGTT, the “relative binding free energy” value came to 0.2 kcal/mol. Consider GGATTCACGTGTTTAG, for which the “relative binding free energy” value was found to be 0.29 kcal/mol.

Consider ATTCACACGTGTGGGT, for which the “relative binding free energy” value was 0.14 kcal/mol. Take AGTTACACGTGGGTCT: the “relative binding free energy” value was 0.16 kcal/mol. On to TAGAGCACGTGTATAG, for which the “relative binding free energy” value was -0.05 kcal/mol. Regarding ACATTCACGTGTTGTG, the “relative binding free energy” value was found to be 0.17 kcal/mol. With AGAGTCACGTGGGGAA, the “relative binding free energy” value was found to be 0.05 kcal/mol. As to TTTTCCACGTGTGGAA, the “relative binding free energy” value was found to be 0.2 kcal/mol. GGTGCCACGTGGTTTT: the “relative binding free energy” value was determined as 0.01 kcal/mol. On to GAATACACGTGAGTAT, for which the “relative binding free energy” value worked out at 0.38 kcal/mol. Take AGAAGCACGTGAAGGG: the “relative binding free energy” value is 0.21 kcal/mol. Take TATCGCACGTGTGTGT: the “relative binding free energy” value is 0.09 kcal/mol. Consider ACGGGCACGTGGGAAG, for which the “relative binding free energy” value was -0.06 kcal/mol. As to GTCGACACGTGAAGGT, the “relative binding free energy” value was 0.4 kcal/mol.

With TAATGCACGTGGTACG, the “relative binding free energy” value is -0.13 kcal/mol. For the sequence GTCATCACGTGTCGGG, the “relative binding free energy” value came out at 0.16 kcal/mol. For the sequence TCGGTCACGTGGGTGG, the “relative binding free energy” value amounted to 0.02 kcal/mol. Under TTGCTCACGTGGTTGA stands 0.14 kcal/mol; under TCAGGCACGTGGTCTT, -0.15 kcal/mol.

With TCTTTCACGTGATGTT, the “relative binding free energy” value was 0.21 kcal/mol. With ATCTTCACGTGGATGT, the “relative binding free energy” value came to 0.16 kcal/mol. On to TTTGTCACGTGAAGGT, for which the “relative binding free energy” value stood at 0.32 kcal/mol. The same measure for GAGGTCACGTGTTTAA: 0.21 kcal/mol; for AGTGGCACGTGGGCAC: -0.31 kcal/mol.

On to TAGTTCACGTGGGTGG, for which the “relative binding free energy” value stood at 0.26 kcal/mol.

Take TGTTCCACGTGGCATG: the “relative binding free energy” value worked out at 0 kcal/mol.

For the sequence GTTTGCACGTGGGTCA, the “relative binding free energy” value is -0.21 kcal/mol. Regarding AGACACACGTGGAGGG, the “relative binding free energy” value was -0.03 kcal/mol. On to CCTTTCACGTGGGGGT, for which the “relative binding free energy” value was 0.04 kcal/mol. On to TAGCGCACGTGATATT, for which the “relative binding free energy” value is 0.13 kcal/mol. In the case of GCATTCACGTGAGTTA, the “relative binding free energy” value was 0.47 kcal/mol. Take AGGTTCACGTGAATTA: the “relative binding free energy” value was found to be 0.21 kcal/mol.

On to AAGGGCACGTGTATCG, for which the “relative binding free energy” value was 0.07 kcal/mol. With TTGAGCACGTGGGCGA, the “relative binding free energy” value is -0.16 kcal/mol.

CATGACACGTGTAGGT: the “relative binding free energy” value is 0.05 kcal/mol. In the case of GATTGCACGTGGTCGA, the “relative binding free energy” value is -0.11 kcal/mol. The same measure for TGTTACACGTGTGCGA: -0.02 kcal/mol; for TTTCGCACGTGTAAGT: 0.22 kcal/mol.

For the sequence ATTCTCACGTGGGGAG, the “relative binding free energy” value amounted to 0.04 kcal/mol. Regarding TTAGCCACGTGGTGAT, the “relative binding free energy” value was -0.08 kcal/mol. Under AGGAACACGTGGATGT stands 0.13 kcal/mol. For ATTTTCACGTGTCTGT, the “relative binding free energy” value was 0.08 kcal/mol. The same measure for TTATTCACGTGATGTG: 0.36 kcal/mol; for TTAAGCACGTGATATT: -0.04 kcal/mol. With CAAGGCACGTGGATGT, the “relative binding free energy” value was -0.15 kcal/mol. For the sequence ACGGGCACGTGTTTTA, the “relative binding free energy” value is -0.01 kcal/mol.

In the case of TATGGCACGTGTGCTA, the “relative binding free energy” value was -0.04 kcal/mol. Take CATGGCACGTGGGGGT: the “relative binding free energy” value was -0.21 kcal/mol. As for TTGAACACGTGGGGTT, the “relative binding free energy” value was -0.01 kcal/mol. On to AGGGTCACGTGGATCT, for which the “relative binding free energy” value was determined as 0.17 kcal/mol.

As to TTCGACACGTGGGGAG, the “relative binding free energy” value was -0.13 kcal/mol.

Take TTTGGCACGTGGGAGA: the “relative binding free energy” value was -0.12 kcal/mol. With TGGGTCACGTGGAACT, the “relative binding free energy” value turned out to be 0.06 kcal/mol. As to ATTAACACGTGATTGG, the “relative binding free energy” value came out at 0.08 kcal/mol.

Regarding TTAGACACGTGTAAAT, the “relative binding free energy” value was determined as 0.34 kcal/mol.

On to AAGTTCACGTGTCGAT, for which the “relative binding free energy” value amounted to 0.3 kcal/mol.

On to TGGGCCACGTGAGAAG, for which the “relative binding free energy” value was 0.21 kcal/mol. Under TGTGACACGTGCGTAG stands -0.11 kcal/mol; under TTATACACGTGGGAGG, -0.06 kcal/mol. Turning to TTTGACACGTGATAGG, the “relative binding free energy” value turned out to be 0.11 kcal/mol.

For the origin of these results see the BET-seq Pho4 binding data (Le et al. 2018).
